Assay results taken from patent US20160313325A1.

Columns and labels:
[1] = target: gp41 of pNL-AD87 (Env from the CCR5-tropic clone AD87 in the pNL4-3 backbone) (HIV-1 clone AD87 (subtype B, CCR5-tropic))
[2] = target: gp41 of pNL-Bal (Env from the CCR5-tropic clone BAL2 in the pNL4-3 backbone) (HIV-1 clone BAL2 (subtype B, CCR5-tropic))

Substance: T20 (Enfuvirtide, Fuzeon) (peptide)
- IC50 (nM), inhibition of viral replication, deCIPhR cell to cell infection [1]: 63 nM
- IC50 (nM), inhibition of viral replication, deCIPhR cell to cell infection [2]: 10 nM
